According to the antibiotic and cytotoxicity screens of Wong et al. (2023):
The other results are listed elsewhere or left out.

What was measured:
HSkMC = human skeletal muscle cells; test: cytotoxicity call (relative viability < 0.9); conditions: 10 µM
HepG2 = test: cytotoxicity call (relative viability < 0.9); conditions: 10 µM
S. aureus RN4220 = test: growth inhibition call (relative growth <= 0.2); conditions: 50 µM

Row | Compound | cytotoxicity call (HSkMC) | cytotoxicity call (HepG2) | growth inhibition call (S. aureus RN4220)
1 | OCCc1ccc2c(c1)OCO2 | inactive | inactive | inactive
2 | CC(C)NC(=O)N(C)C[C@H]1Oc2ccc(NC(=O)C3CCCCC3)cc2CC(=O)N([C@@H](C)CO)C[C@H]1C | inactive | inactive | inactive
3 | C[N+](C)(C)CCCC[C@@H]1NC(=O)[C@H]2C[C@@H](C(=O)NCc3ccc(F)cc3)[C@@H](c3cccc(OCCO)c3)N2C1=O | inactive | inactive | inactive
4 | CC(C)CN1C(=O)[C@@]2(c3ccc([N+](=O)[O-])cc3)CC(=O)N(CC34CC5CC(CC(C5)C3)C4)[C@@H]2c2ccc(CO)cc21 | inactive | inactive | inactive
5 | C[C@H](CO)N1C[C@H](C)[C@H](CN(C)C(=O)Nc2cccc3ccccc23)Oc2ccc(NS(=O)(=O)c3ccc(Cl)cc3)cc2C1=O | inactive | inactive | inactive
6 | C[C@@H]1CN([C@H](C)CO)C(=O)c2c(c3ccccc3n2C)-c2ccccc2CO[C@H]1CN(C)Cc1ccc2c(c1)OCCN2C | inactive | inactive | inactive
7 | Cc1noc(C)c1NC(=O)N(C)C[C@@H]1Oc2ccc(NS(=O)(=O)c3cn(C)cn3)cc2CC(=O)N([C@H](C)CO)C[C@@H]1C | inactive | inactive | inactive
8 | C[C@H](CO)N1C[C@H](C)[C@@H](CN(C)C(=O)Nc2ccccc2)Oc2c(NS(C)(=O)=O)cccc2C1=O | inactive | inactive | inactive
9 | C[C@H]1CCCCO[C@H](CN(C)CC2CCCCC2)[C@@H](C)CN([C@@H](C)CO)C(=O)c2cc(NC(=O)C3CCCCC3)ccc2O1 | inactive | active | inactive
10 | C[C@@H]1CN([C@H](C)CO)C(=O)Cc2cc(NC(=O)Nc3ccccc3)ccc2O[C@H]1CN(C)Cc1ccc(Cl)c(Cl)c1 | active | active | inactive
11 | Cc1ccc(S[C@]2(C(=O)NC3CC3)CC(=O)N(C3CCCCC3)[C@@H]2c2ccc(CO)cc2I)cc1 | inactive | inactive | inactive
12 | C[C@H](CO)N1C[C@H](C)[C@@H](CN(C)C(=O)Nc2cccc(Oc3ccccn3)c2)OCc2cnnn2CCCC1=O | inactive | inactive | inactive
13 | COc1c(C)cnc2c1c(=O)n(CC(N)=O)c(=O)n2C | inactive | inactive | inactive
14 | O=C(OCC(O)CO)c1ccccc1Nc1ccnc2cc(Cl)ccc12 (stereo unspecified) | inactive | inactive | inactive
15 | C[C@H](CO)N1C[C@H](C)[C@H](CN(C)CC2CCOCC2)Oc2cc(Br)ccc2S1(=O)=O | inactive | inactive | inactive
16 | COc1ccc([Si](C)(C)[C@@H]2[C@@H](CCn3cc([C@H](O)c4ccccc4)nn3)O[C@]3(C(=O)N(Cc4ccc(N5C(=O)c6cccc7cccc5c67)cc4)c4ccccc43)[C@H]2C)cc1 | inactive | active | inactive
17 | C[C@H]1CN([C@@H](C)CO)C(=O)c2cccc(NC(=O)c3nc4ccccc4s3)c2O[C@H]1CN(C)Cc1ccc(C(=O)Nc2ccccc2N)cc1 | inactive | inactive | inactive
18 | C[C@@H]1CCCCO[C@@H](CN(C)Cc2ccc(C(F)(F)F)cc2)[C@H](C)CN([C@@H](C)CO)C(=O)c2cc(NS(=O)(=O)c3ccc(F)cc3)ccc2O1 | inactive | inactive | inactive
19 | C[C@H]1CN([C@@H](C)CO)S(=O)(=O)c2ccc(C#CCN(C)C)cc2O[C@H]1CN(C)Cc1cccnc1 | inactive | inactive | inactive
20 | CC(C)NC(=O)N(C)C[C@@H]1OCCCC[C@H](C)Oc2ccc(NC(=O)C3CCCCC3)cc2C(=O)N([C@@H](C)CO)C[C@H]1C | inactive | inactive | inactive
21 | C[C@H]1CCCCO[C@H](CN(C)C(=O)CCC(F)(F)F)[C@@H](C)CN([C@@H](C)CO)C(=O)c2cc(NC(=O)Nc3ccccc3)ccc2O1 | inactive | inactive | inactive
22 | C[C@H]1CN([C@@H](C)CO)C(=O)Cc2cc(NC(=O)Cc3ccccc3)ccc2O[C@@H]1CN(C)S(=O)(=O)c1ccccc1 | inactive | inactive | inactive
23 | C[C@H]1CCCCO[C@@H](CN(C)C(=O)Nc2ccc(F)cc2)[C@@H](C)CN([C@@H](C)CO)C(=O)c2cc(NC(=O)c3ccncc3)ccc2O1 | inactive | inactive | inactive
24 | CO[C@@H]1CN(C)C(=O)c2cc(NC(=O)C3CC3)ccc2OC[C@@H](C)N(C(=O)C2CCOCC2)C[C@H]1C | inactive | inactive | inactive
25 | C[C@@H]1CN([C@@H](C)CO)C(=O)c2cccc(NS(=O)(=O)c3ccc(Cl)cc3)c2O[C@H]1CN(C)Cc1ccc(C(F)(F)F)cc1 | inactive | inactive | inactive
26 | CN(C)Cc1cn(CC[C@@H]2CC[C@@H](NS(=O)(=O)c3ccccc3)[C@@H](CO)O2)nn1 | inactive | inactive | inactive

Row | Compound | cytotoxicity call (HSkMC) | cytotoxicity call (HepG2) | growth inhibition call (S. aureus RN4220)
27 | C[C@@H]1CN([C@@H](C)CO)C(=O)c2cc(NC(=O)c3ccccc3)ccc2O[C@@H](C)CCCCO[C@@H]1CN(C)S(=O)(=O)c1ccccc1 | inactive | inactive | inactive
28 | C[C@@H]1CN([C@H](C)CO)C(=O)Cc2cc(NC(=O)CCN3CCOCC3)ccc2O[C@@H]1CN(C)S(C)(=O)=O | inactive | inactive | inactive
29 | Cc1noc(C)c1NC(=O)N(C)C[C@@H]1OCCCC[C@H](C)Oc2ccc(NC(=O)Nc3cccc4ccccc34)cc2C(=O)N([C@H](C)CO)C[C@@H]1C | inactive | inactive | inactive
30 | C[C@H](CO)N1C[C@H](C)[C@@H](CN(C)S(=O)(=O)c2cn(C)cn2)Oc2ccc(NC(=O)CCN3CCOCC3)cc2C1=O | inactive | inactive | inactive
31 | COc1ccc(S(=O)(=O)N(C)C[C@H]2Oc3ccc(NC(=O)Cn4cnnn4)cc3C(=O)N([C@@H](C)CO)C[C@@H]2C)cc1 | inactive | inactive | inactive
32 | O=C(C[C@H]1C[C@H]2c3cc(NC(=O)Cc4ccncc4)ccc3O[C@H]2[C@H](CO)O1)NCCc1ccccc1 | inactive | inactive | inactive
33 | C[C@H]1CN([C@@H](C)CO)C(=O)c2cc(-c3ccc(C(=O)N(C)C)cc3)cnc2O[C@@H]1CN(C)C(=O)CN(C)C | inactive | inactive | inactive
34 | Cc1cccc(C)c1OCC(=O)NC(Cc1ccccc1)C(O)CC(Cc1ccccc1)NC(=O)C(C(C)C)N1CCCNC1=O (stereo unspecified) | inactive | inactive | inactive
35 | C[C@@H]1CN([C@@H](C)CO)C(=O)c2cc(NC(=O)CCC(F)(F)F)ccc2O[C@@H](C)CCCCO[C@H]1CN(C)C(=O)CCC(F)(F)F | inactive | inactive | inactive
36 | COc1ccc(NC(=O)Nc2ccc3c(c2)C(=O)N([C@@H](C)CO)C[C@@H](C)[C@@H](CN(C)Cc2ccc(Cl)c(Cl)c2)OCCCC[C@@H](C)O3)cc1 | inactive | active | inactive
37 | Cc1ccc(S(=O)(=O)N(C)C[C@@H]2Oc3ncc(C#CC4(O)CCCC4)cc3C(=O)N([C@H](C)CO)C[C@H]2C)cc1 | inactive | inactive | inactive
38 | CC(C)C(=O)O | inactive | inactive | inactive
39 | CCCC(=O)Nc1ccc2c(c1)C(=O)N(C)C[C@@H](OC)[C@H](C)CN(C(=O)CN1CCOCC1)[C@H](C)CO2 | inactive | inactive | inactive
40 | C[C@H]1CN([C@@H](C)CO)C(=O)c2cc(NC(=O)Nc3cccc4ccccc34)ccc2O[C@@H]1CN(C)Cc1ccncc1 | inactive | inactive | inactive
41 | COc1ccc(S(=O)(=O)Nc2ccc3c(c2)C(=O)N([C@H](C)CO)C[C@@H](C)[C@H](CN(C)Cc2ccc(-c4ccccc4)cc2)O3)cc1 | inactive | inactive | inactive
42 | C[C@@H](O)COC[C@H]1O[C@@H]2O[C@H]3[C@H](O)[C@@H](O)[C@@H](O[C@H]4[C@H](O)[C@@H](O)[C@@H](O[C@H]5[C@H](O)[C@@H](O)[C@@H](O[C@H]6[C@H](O)[C@@H](O)[C@@H](O[C@H]7[C@H](O)[C@@H](O)[C@@H](O[C@H]8[C@H](O)[C@@H](O)[C@@H](O[C@H]1[C@H](O)[C@H]2O)O[C@@H]8COC[C@@H](C)O)O[C@@H]7COC[C@@H](C)O)O[C@@H]6COC[C@@H](C)O)O[C@@H]5COC[C@@H](C)O)O[C@@H]4COC[C@@H](C)O)O[C@@H]3COC[C@@H](C)O | inactive | inactive | inactive
43 | O=C(N[C@H](c1ccc(F)cc1)c1ccc2ccccc2n1)C1CCN(CCOc2ccc(Cl)cc2Cl)CC1 | inactive | inactive | inactive
44 | COc1ccc(NC(=O)Nc2ccc3c(c2)C(=O)N([C@H](C)CO)C[C@@H](C)[C@H](CN(C)C(=O)Cc2ccccc2)OCCCC[C@@H](C)O3)cc1 | inactive | inactive | inactive
45 | O=C(C[C@@H]1C=C[C@@H](NS(=O)(=O)c2ccccc2F)[C@H](CO)O1)NCCCN1CCOCC1 | inactive | inactive | inactive
46 | O=C(C[C@@H]1C=C[C@H](NC(=O)C2CC2)[C@@H](CO)O1)NCCCN1CCOCC1 | inactive | inactive | inactive
47 | C[C@@H]1CCCCO[C@H](CN(C)C(=O)Cc2ccccc2)[C@H](C)CN([C@@H](C)CO)C(=O)c2cc(NC(=O)c3ccccc3)ccc2O1 | inactive | inactive | inactive
48 | CC1CC2C3CC(F)C4=CC(=O)C=CC4(C)C3(F)C(O)CC2(C)C1(O)C(=O)CO (stereo unspecified) | inactive | inactive | inactive
49 | C[C@@H]1CN([C@H](C)CO)C(=O)c2cccc(NC(=O)Nc3ccc4c(c3)OCO4)c2O[C@H]1CN(C)Cc1ccc(C(=O)Nc2ccccc2N)cc1 | inactive | inactive | inactive
50 | C[C@H](CO)N1C[C@H](C)[C@H](CN(C)Cc2ccc(Cl)c(Cl)c2)Oc2c(NC(=O)c3ccc(-c4nccs4)cc3)cccc2C1=O | inactive | inactive | inactive
51 | CCCCCCCCCCCCCCCCCCCCCCO | inactive | active | inactive
52 | COCC#Cc1ccc2c(c1)O[C@H](CN(C)C(=O)Nc1ccccc1F)[C@@H](C)CN([C@H](C)CO)S2(=O)=O | inactive | inactive | inactive
